The campaign covered roughly 420,000 compounds. About 64,000 (15%) were called active. This list was built around the results that the source calls inconclusive (neither active nor inactive); the mix of calls is not that of the screen. Calls follow the shape of the dose curve; as a rule, active = well fitted inhibition curve with a large enough effect; inconclusive = small, poorly fitted or top-dose-only effect; inactive = flat fitted curve, though single readings scatter. No potency is given beside an inconclusive call; the fits are too rough.
Assay: qHTS for Inhibitors of human tyrosyl-DNA phosphodiesterase 1 (TDP1): qHTS in cells in absence of CPT; also: nearly all actives have a fitted effect of over 55% in size
Details: DT40 Tdp1-/- hTDP1 cells, no CPT, ATP luminescence, 48 h; activity change, negative = growth inhibition: at 46.2 µM (top of the series) unless noted
Summary of the method: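 Luminescent ATP content (CellTiter-Glo) served as the growth readout. Knockout chicken DT40 cells expressing human TDP1 were exposed to compounds without camptothecin for a minimum 48 hr at 37 °C.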
% is scaled to controls: 0 for no effect and ±100 for the full control effect; potency is read from the fitted curve at half-maximal effect; tags tell the direction and shape of the fitted curve.

SMILES	Potency	activity change, negative = growth inhibition
O=c1[nH]c(C2CCN(S(=O)(=O)Cc3ccccc3)CC2)nc2c1nnn2Cc1ccccc1	inconclusive [inhibitor, single point]	
CCCCOc1ccc([N+](=O)[O-])cc1C(=O)O		inactive: -14.7%
Cc1ccc(OCc2ccc(C(=O)Nc3nc4ccccc4n3C)o2)c([N+](=O)[O-])c1	inconclusive [inhibitor, partial curve]	
COc1ccc(OCc2nnc(SCC(=O)NC3CC4CCC3C4)o2)cc1 (stereo unspecified)	inconclusive [inhibitor, full curve]	
Cc1ccc2nc(=O)c(NNc3ccccc3)cnc2c1	active: 10.3 µM	
C/C(=N\NC(=O)c1ccccc1F)c1cccc(NC(=O)c2ccccc2)c1		inactive: -18.4%
N#C/C(=C/c1ccc(F)cc1)C(N)=S		inactive: -26.6%
CCCCNC(=O)C1CCN(S(=O)(=O)N2CCOCC2)CC1		inactive: 4.45%
CCCCOC(=O)c1ccc(NC(=O)/C(C#N)=C/c2ccc(C)o2)cc1		inactive: -21.7%
CC(CNC(=O)Cn1ccc(N)nc1=O)c1ccccc1 (stereo unspecified)		inactive: 7.51%
O=S(=O)(NCc1ccccc1Cl)c1cnc[nH]1		inactive: -0.134%
Cc1ccc(C)c(N2CCN(C(=O)C3CCCN(S(=O)(=O)c4cnc[nH]4)C3)CC2)c1 (stereo unspecified)	inconclusive [inhibitor, single point]	
CN1C(C)(C)CC(O)(C(=O)O)CC1(C)C		inactive: -0.901%
CCOc1ccc(OCCCC(=O)NCCc2ccc(OC)cc2)cc1		inactive: -1.34%
CC1CN(CC(O)COc2ccc(C#N)cc2)CCN1CC(O)COc1ccc(C#N)cc1 (stereo unspecified)	active: 23.1 µM	
Cc1ccc(-c2cccc(C3CC=CC4C3C(=O)N(Cc3ccccc3)C4c3ccc4ccccc4c3)c2)cc1 (stereo unspecified)	active: 13 µM	
CN(c1ccccc1)S(=O)(=O)c1ccc2[nH]c(=O)[nH]c2c1		inactive: 0.432%
COC(=O)[C@@]12C[C@@H](CC(=O)NCCC(C)C)C(=O)N(Cc3ccco3)C1=CCC(C)(C)C2	inconclusive [inhibitor, single point]	
CCc1nnc(NC(=O)CCC(=O)NCc2ccccc2OC)s1		inactive: 5.54%
Cc1ccc(-c2nc(CNC(=O)c3ccco3)cs2)cc1	inconclusive [inhibitor, partial curve]	
Cc1ccc(S(=O)(=O)N2CCN(C(=O)Cn3c(=O)cnc4ccccc43)CC2)c(C)c1	inconclusive [inhibitor, single point]	
NS(=O)(=O)c1ccc(NC(=O)COC(=O)c2cnccn2)cc1		inactive: -0.482%
CCCCNS(=O)(=O)c1ccc2nc(-c3cccnc3)cc(C(=O)NCCCOCC)c2c1		inactive: -27%
COc1cccc(CN(C)C(=O)CC23CC4CC(CC(C4)C2)C3)c1OC	inconclusive [inhibitor, single point]	
CCC1CCC(C(=O)NC(C(=O)NCCCN2CCCCC2C)C(C)C)CC1 (stereo unspecified)		inactive: -0.398%
CC(C)(C)C(=O)c1no[n+]([O-])c1/C(=N/O)C(C)(C)C	inconclusive [inhibitor, single point]	

SMILES	Potency	activity change, negative = growth inhibition
O=C(CCCCC(=O)NCCCc1ccccc1)NCCCc1ccccc1	inconclusive [inhibitor, single point]	
Cc1noc(C)c1-c1ccc2ncnc(Nc3ccccc3)c2c1		inconclusive: -30.7% [inhibitor]
Cc1ccccc1C(=O)N1CCC(C(=O)Nc2nc3ccc(F)cc3s2)CC1	inconclusive [inhibitor, single point]	
Cc1cc(-c2nnc(SCCC(=O)Nc3ccccc3)o2)no1	inconclusive [inhibitor, single point]	
O=C(COc1coc(CN2CCc3ccccc3C2)cc1=O)Nc1ccc([N+](=O)[O-])cc1	inconclusive [inhibitor, single point]	
CCn1nc(CC(=O)Nc2ccc(-n3cnnn3)c(C)c2)c2ccccc2c1=O	inconclusive [inhibitor, single point]	
CCc1ccccc1N1C(=O)N(C)c2ccccc2S1(=O)=O	inconclusive [inhibitor, single point]	
CN1CCN(c2ccc(Cl)cc2NC(=O)CCN2C(=O)c3ccccc3C2=O)CC1		inactive: -26.4%
CCN(Cc1ccccc1)C(=O)COC(=O)c1cnc(C)cn1		inactive: -0.257%
N#CCCN(Cc1ccccc1)C(C(=O)NC1CCCCC1)c1ccnc2ccccc12 (stereo unspecified)	inconclusive [inhibitor, single point]	
C[C@@H]1CN([C@H](C)CO)C(=O)CCCn2cc(nn2)CO[C@H]1CN(C)C(=O)Nc1ccccc1		inactive: 12.8%
CCCC(=O)N1CCCC(c2nc(-c3cccc(OC)c3)no2)C1 (stereo unspecified)	inconclusive [inhibitor, partial curve]	
COc1cccc(S(=O)(=O)N(C)C[C@@H]2OCc3cnnn3CCCC(=O)N([C@H](C)CO)C[C@@H]2C)c1		inactive: -21.2%
CC1=C(C(=O)Nc2ccccc2)C(c2ccco2)NC(=S)N1 (stereo unspecified)		inactive: -1.91%
COc1ccc(CC(=O)Nc2nc(-c3ccc(F)c(F)c3)cs2)cc1	active: 16.4 µM	
Cc1ccc(S(=O)(=O)NC(N)=NCCc2ccc(Cl)cc2)cc1	inconclusive [inhibitor, single point]	
Cc1ccccc1S(=O)(=O)Cc1ccc(C(=O)N2CC(C)CC(C)C2)o1 (stereo unspecified)	inconclusive [inhibitor, single point]	
COC(=O)c1ccc(NC(=O)CN(c2cccc(C(F)(F)F)c2)S(C)(=O)=O)cc1	active: 4.61 µM	
CCOC(=O)C1CCCN(C(=O)CNS(=O)(=O)c2ccc(Br)s2)C1 (stereo unspecified)		inactive: -14.3%
CN(C)C(=O)N=NC(=O)N(C)C	active: 9.2 µM	
O=C(COc1ccc(S(=O)(=O)NC2CCCCC2)cc1)NC1CCCCC1		inconclusive: -33.2% [inhibitor]
COC(=O)c1ccc(C(=O)OCc2nc3cc4ccccc4cc3[nH]2)cc1		inactive: 4.16%
Cc1csc(NC(=O)C(C)Oc2ccc(Br)cc2)n1 (stereo unspecified)	inconclusive [inhibitor, partial curve]	
CCc1cccc(CC)c1NC(=O)COC(=O)C1(C)CC1(Cl)Cl (stereo unspecified)		inactive: 6.15%
COc1ccc(C(=O)Nc2ccc3[nH]ccc3c2)cc1	active: 25.9 µM	
COc1ccccc1OCCNC(=O)c1cccc(S(=O)(=O)N2CCN(Cc3ccccc3)CC2)c1	inconclusive [inhibitor, single point]	

SMILES	Potency	activity change, negative = growth inhibition
O=C1Nc2ccc([N+](=O)[O-])cc2C1=Nc1cccc(CO)c1	inconclusive [inhibitor, single point]	
Cc1cc(C)cc(NC(=O)c2ccc(Cn3nc(C)c(Cl)c3C)o2)c1	inconclusive [inhibitor, single point]	
COc1ccccc1CNC(=O)c1cc(-c2cccnc2)nc2ccccc12	inconclusive [inhibitor, single point]	
COc1ccc(CCNC(=O)c2cccc(NC(=O)CC3SC(N4CCCCC4)=NC3=O)c2)cc1OC (stereo unspecified)	inconclusive [inhibitor, single point]	
Cc1ccsc1/C=N/NC(=O)CNC(=O)c1cccc([N+](=O)[O-])c1C		inactive: -17.4%
COc1ccc(NC(=O)N(CCN2CCCC2)Cc2cc3cc(OC)c(OC)cc3[nH]c2=O)cc1		inactive: -25.2%
COc1cccc(CC(=O)OCC(=O)NC(C)c2ccc(F)cc2)c1 (stereo unspecified)		inactive: -7.62%
CCCc1ccc(OCc2ccc(C(=O)Nc3cccc(C)n3)o2)c(OC)c1	inconclusive [inhibitor, partial curve, poor fit]	
Cc1c(Nc2scc(-c3ccccc3)[n+]2-c2ccccc2)c(=O)n(-c2ccccc2)n1C	active: 20.6 µM	
COc1ccc(C(=O)NCCS(=O)(=O)N2CCc3ccccc3C2)c(OC)c1	inconclusive [inhibitor, single point]	
CCCN(CCC)CCCNC(=O)C1CCN(S(=O)(=O)c2cccc3nsnc23)CC1	inactive	
O=C1NC(Cc2ccccc2)C(=O)N1Cc1cc([N+](=O)[O-])cc2c1OCOC2 (stereo unspecified)		inconclusive: -31.9% [inhibitor]
COc1ccc(C(=O)Nc2ccc(N3CCN(C(=O)c4ccccc4C)CC3)cc2)cc1	active: 8.2 µM	
CSc1nn(Cc2ccc(F)cc2)c(N)c1S(=O)(=O)c1ccc(Cl)cc1	active: 16.4 µM	
Cc1ccc(C)c(NC(=O)CCc2ccc(S(=O)(=O)NC3CCCCC3)cc2)c1	inconclusive [inhibitor, single point]	
COc1ccccc1NC(=O)NNC(=O)c1ccc2c(c1)NC(=O)C(C)(C)O2	inconclusive [inhibitor, single point]	
CCCn1nnnc1NC(=O)COc1ccc(Cl)cc1C	inconclusive [inhibitor, single point]	
O=C1COc2ccc(-c3cc(-c4ccc(F)cc4)c4c(n3)-c3ccccc3OC4)cc2N1	active: 5.8 µM	
CCCCCCCCCCCCCCCCO		inactive: 4.89%
COc1ccc(CCCc2nnc(SCc3nc4ccccc4c(=O)[nH]3)n2C)cc1C	inconclusive [inhibitor, single point]	
Cc1ccc(C(=O)Nc2nc(C)c(C)s2)o1	inconclusive [inhibitor, single point]	
O=C(NC(=S)N1CCN(C/C=C/c2ccccc2)CC1)c1cccnc1		inactive: 4.92%
CCN(CCn1cccn1)Cc1ccccc1OCC(O)CN1CCc2ccccc2C1 (stereo unspecified)	inconclusive [inhibitor, single point]	
O=C(CCc1ccc(S(=O)(=O)NCCc2ccccc2)cc1)NCc1ccc2c(c1)OCO2	inconclusive [inhibitor, single point]	
